In all, about 43,000 compounds went through this assay and about 200 (0.47%) were called active. Inconclusive results (about 12%) are left out. Calls come from the whole dose curve; as a rule, active = well fitted cell-killing curve with a large enough effect; inconclusive = small, poorly fitted or top-dose-only effect, or effect the other way; inactive = flat fitted curve, though single readings scatter. The list shows a part of the results.
Assay: Cell viability qHTS assay in S16 Pmp22-F2sN cells; note: nearly all actives have a fitted effect of over 65% in size
Conditions: S16 Pmp22-F2sN Schwann cells viability, CellTiter-Glo, 24 h; series mostly up to 57.5 µM; activity change, negative = cytotoxicity: at the top concentration
In short: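 Viability was measured by CellTiter-Glo luminescence (15 min, room temperature). This followed 24 h at 37 °C of compound exposure (23 nL pin transfer) in S16 Pmp22-F2sN Schwann cells, 500-1,000 per well.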
% is set by controls: 0 for no effect and ±100 for the full control effect.

| SMILES | activity change, negative = cytotoxicity |
| --- | --- |
| COc1cc(CNC(=O)CSCc2nc3cccnc3n2C2CCCCC2)cc(OC)c1OC | inactive: -6.4% |
| Cc1ccc(C)c(NC(=O)CCc2nc(-c3ccc(C(C)(C)C)cc3)no2)c1 | inactive: -20.4% |
| CCCS(=O)(=O)N1CC(=O)N(c2ccccc2F)C(C)(C(=O)NC2CCCCCC2)C1 (centres undefined) | inactive: -2.09% |
| COc1ccc(CCNC(=O)c2cc(C)nc3c2c(C)nn3-c2ccccc2)cc1OC | inactive: 15.2% |
| CC1CCN(C(=O)CSc2nc(-c3ccc(C(C)C)cc3)no2)CC1 | inactive: -1.84% |
| CC(C(=O)NCc1ccccc1)N1Cc2ccccc2C1=O (centres undefined) | inactive: 13.9% |
| CCCc1ccc(OCC(=O)Nc2scc(-c3cccs3)c2C(=O)OC)cc1 | inactive: 7.95% |
| COc1ccc2c(c1)CC(C(=O)NCCN1CCN(c3cccc(Cl)c3)CC1)CO2 (centres undefined) | inactive: -17.5% |
| O=C(c1ccc2c(c1)N(Cc1ccc(F)cc1)CCS2)N1CCN(c2ccccc2)CC1 | inactive: -26.4% |
| Cc1ccc(CNC(=O)c2sc3nc4n(c(=O)c3c2C)CCCC4)cc1 | inactive: 6.13% |
| Cc1nc(Oc2ccccc2C)c2oc3ccccc3c2n1 | inactive: -18.4% |
| COc1ccc2nc3oc(C(=O)Nc4cccc(C(F)(F)F)c4)cc3cc2c1 | inactive: 14% |
| Cc1ccc2nc(-c3ccc(C)c(NC(=O)Cc4ccccc4)c3)oc2c1 | inactive: -14.7% |
| Cc1ccccc1CN1CCc2nc(N3CCN(c4ccccn4)CC3)ncc2C1 | inactive: 7.12% |
| Cc1c(C2=CCN(S(=O)(=O)c3ccc(Br)cc3)CC2)c2ccccc2n1CC(=O)N1CCCC1 | inactive: 3.2% |
| Cc1ccc(CNC(=O)CSc2c3c(nc4ccc(Cl)cc24)CCCC3)cc1 | inactive: 1.29% |
| Cc1cccc(Nc2nc(C)nc(N)c2S(=O)(=O)c2ccccc2)c1 | inactive: 21% |
| COc1ccc(N2CCN(CCCNC(=O)c3ccc4nc(CCc5ccccc5)oc4c3)CC2)cc1 | inactive: -27.8% |
| Cc1c(Cl)cccc1NC(=O)c1ccc(NC(=O)N2CCSc3ncccc32)cc1 | inactive: -4.81% |
| Cc1ccccc1NC(=O)CS(=O)(=O)c1cccc2nsnc12 | inactive: 2.23% |
| CCc1c(C)sc2c1CCN(C(=O)Nc1ccccc1C(=O)OC)C2c1ccc(F)cc1 (centres undefined) | inactive: 9.78% |
| CCNC(=O)c1c(NC(=O)COc2ccc(F)cc2)sc2c1CCCC2 | inactive: 6.74% |
| O=C(Nc1ccc(Br)cc1)N1CCC(CN2CCCC2)CC1 | inactive: 4.14% |
| Cc1ccc(NC(=O)c2ccc(=O)n(CC(=O)Nc3c(C)cc(C)cc3C)n2)cc1 | inactive: 3.65% |
| Cc1ccc(COc2ccc3oc(-c4ccccc4)c(C(=O)O)c3c2)cc1 | inactive: 4.27% |

| SMILES | activity change, negative = cytotoxicity |
| --- | --- |
| COc1ccc(/C=C/C(=O)N2CCC(c3nc4ccccc4o3)CC2)cc1OC | inactive: -7.33% |
| COc1ccc(OCC(=O)N2CCN(C(=O)c3cc(OC)c(OC)c(OC)c3)CC2)cc1 | inactive: 26.3% |
| CCOc1ccc(C2N3CC4(C(C)C)CN2CC(C(C)C)(C3)C4=O)cc1OC (centres undefined) | inactive: 9.18% |
| CCOc1ccccc1NC(=O)N(C)CCc1c(C)nn(CC)c1C | inactive: -2.27% |
| CC(C)(C)c1ccc(C(=O)NNc2ncnc3c2cnn3-c2ccccc2)cc1 | inactive: -3% |
| O=C(COc1ccccc1)NCC(c1cccs1)S(=O)(=O)c1ccc(Cl)cc1 (centres undefined) | inactive: 4.42% |
| COc1cccc(C(=O)Nc2ccc(-n3nncc3-c3ccc(Br)cc3)cc2)c1OC | inactive: -3.95% |
| Cc1cc(C)n2c(Nc3ccccc3C)c(-c3cccs3)nc2n1 | inactive: 1.01% |
| COc1ccc(-n2nc(C(=O)Nc3ccc(Br)cc3C)c3c4ccccc4n(C)c3c2=O)cc1 | inactive: 1.95% |
| COc1ccc(C(=O)N2CC(=O)Nc3ccc(C)cc3C2c2ccccc2)cc1OC (centres undefined) | inactive: -0.596% |
| Cc1ccc(CN2C(=O)c3ccccc3Sc3ccc(C(=O)NCc4ccco4)cc32)cc1 | inactive: -8.16% |
| COc1ccc(C(=O)NCC(c2ccc3c(c2)OCO3)N2CCOCC2)cc1 (centres undefined) | inactive: 11.8% |
| Cc1ccc(S(=O)(=O)N(CC(O)Cn2c3ccccc3c3ccccc32)c2cccc(C(=O)N(C)C)c2)cc1 (centres undefined) | inactive: -19.2% |
| COc1ccc(C2=NN(S(C)(=O)=O)C(c3cn(-c4ccccc4)nc3-c3cccs3)C2)cc1 (centres undefined) | inactive: -2.65% |
| Cc1ccc(-c2nc3ccccn3c2Nc2ccc3c(c2)OCCO3)s1 | inactive: 17.5% |
| O=C(Cc1ccc(NC(=O)N2CCSc3ncccc32)cc1)NCc1ccccc1 | inactive: 1.28% |
| Cc1cc(C)cc(NC(=O)Cn2c(=O)n(C(C)C)c(=O)c3oc4ccccc4c32)c1 | inactive: 10% |
| Cc1oc2ncnc(N3CCOCC3)c2c1C(=O)N1CCN(c2cccc(C(F)(F)F)c2)CC1 | inactive: 2.86% |
| COc1cccc(-c2ccnc3c(-c4ccc(F)cc4)c(C)nn23)c1 | inactive: 22.1% |
| CCCn1c(=N)c(C(=O)NCc2cccnc2)cc2c(=O)n3cccc(C)c3nc21 | inactive: 29.8% |
| COc1ccc(NC(=O)C2=C(C)Nc3ncnn3C2c2ccc(C)o2)cc1 (centres undefined) | inactive: 7.29% |
| CCN(C(=O)C1CCC(CNS(=O)(=O)c2cccc3nsnc23)CC1)c1ccccc1 (centres undefined) | inactive: -23.8% |
| CC1(C)CC(=O)c2cc(C(=O)Nc3ccc(Br)cc3)c(=O)[nH]c2C1 | inactive: 0.302% |
| CCN(C(=O)C1CCC(CNS(=O)(=O)c2cccc3nsnc23)CC1)c1cccc(C)c1 (centres undefined) | inactive: -10.2% |
| O=C(COc1ccc(Cl)cc1)N(Cc1ccco1)c1ccccn1 | inactive: -2.85% |

| SMILES | activity change, negative = cytotoxicity |
| --- | --- |
| Cc1cc(C)c(NS(=O)(=O)c2ccc3c(c2)NC(=O)CCS3)c(C)c1 | inactive: 19.6% |
| CCOC(=O)c1cc(-c2ccccc2)n(CC(=O)Nc2cc(Cl)c(OC)cc2OC)c1C | inactive: -22.8% |
| Cc1cc(C)cc(Nc2ncnc3sc4c(c23)CCCC4)c1 | inactive: 12.8% |
| Cc1cccc(Cn2c(CNC(=O)c3ccccc3)nc3ccccc32)c1 | inactive: 1.94% |
| Cc1ccn2c(Nc3ccc(C(C)C)cc3)c(-c3ccsc3)nc2c1 | inactive: 5.05% |
| CC(C)OCCCNC(=O)c1c2c(nc3ccccc13)C(=O)N(C1CCCCC1)C2 | inactive: 4.1% |
| CCCCCOc1ccccc1Cn1c(=O)oc2ccc(C)cc21 | inactive: -0.787% |
| Cc1nn(C(C)C(=O)Nc2cccc(F)c2)c(=O)c2c1sc1ccccc12 (centres undefined) | inactive: -0.882% |
| COCCNC(=O)CCSc1nc(-c2ccc(OC)cc2)cc(C(F)(F)F)n1 | inactive: 27.8% |
| Cc1ccc(Nc2c(-c3ccc(N4CCOCC4)cc3)nc3ncccn23)c(C)c1 | inactive: 0.765% |
| Cc1cccc(-c2nc(S(=O)(=O)c3ccccc3)c(N3CCN(c4ccccc4)CC3)o2)c1 | inactive: 4.72% |
| CSc1ccc(-c2nc3cc(C)ccn3c2Nc2ccc(C)cc2)cc1 | inactive: -2.34% |
| CCc1ccc(NC(=O)C(=O)NCCc2sc(-c3ccc(C)cc3)nc2C)cc1 | inactive: 3.51% |
| O=C(CSc1nc2c(c(=O)[nH]1)CCC2)Nc1cc(C(F)(F)F)ccc1Cl | inactive: -2.68% |
| Cc1ccc(C(=O)c2cn(Cc3ccccc3)c3cc4c(cc3c2=O)OCCO4)cc1 | inactive: 0.515% |
| CCc1cccc(NC(=O)CSc2nccn2C)c1 | inactive: 0.372% |
| CCOC(=O)c1cc(S(=O)(=O)Nc2cc(C)c(Cl)cc2OC)[nH]n1 | inactive: -4.13% |
| Cn1ccc2c(OCC(=O)NCc3ccc(F)cc3)cccc2c1=O | inactive: -3.93% |
| CCCCn1c(C2CC(=O)N(c3ccc(OCC)cc3)C2)nc2ccccc21 (centres undefined) | inactive: 3.86% |
| O=C(OCC1CCCO1)c1ccc2c(c1)N(Cc1c(F)cccc1Cl)C(=O)c1ccccc1S2(=O)=O (centres undefined) | inactive: 8.78% |
| CCc1nnc(NC(=O)c2nc(SCc3ccc(F)cc3)ncc2Cl)s1 | inactive: 12.4% |
| CCOc1ccc(OCC)c(NS(=O)(=O)c2ccc3c(c2)CCCN3C(C)=O)c1 | inactive: 0.949% |
| CCC(C(=O)NC1CCCCC1)n1nc(C)c2sc3ccccc3c2c1=O (centres undefined) | inactive: 2.32% |
| O=C(Nc1ccccc1C(F)(F)F)C1CCN(c2nnc(-n3cccc3)s2)CC1 | inactive: -5.64% |
| Cc1ccc(Cl)cc1N1CCN(C(=O)c2cnc3c(-c4ccc(F)cc4)c(C)nn3c2C)CC1 | inactive: 2.39% |

| SMILES | activity change, negative = cytotoxicity |
| --- | --- |
| O=C(Cn1cc(SCc2ccc(F)cc2)c2ccccc21)N1CCCC1 | inactive: -0.86% |
| CCN(CC)S(=O)(=O)c1ccc2c(c1)c(=O)c(C(=O)N1CCN(c3cc(C)ccc3C)CC1)cn2C | inactive: 1.7% |
| CCOCCn1c(=NC(=O)c2ccc3c(c2)OCCO3)sc2cc(OCC)ccc21 | inactive: 11.6% |
| Cc1cc(C)c(NC(=O)c2ccc3nc(C(C)C)oc3c2)c(C)c1 | inactive: -4.27% |
| COCC(C)NC(=O)C1=CC(c2ccc3c(c2)OCO3)=NS(=O)(=O)N1C (centres undefined) | inactive: 1.03% |
| O=S(=O)(c1ccc2nc(Nc3ccc(Br)cc3F)ccc2c1)N1CCCC1 | inactive: 11.5% |
| O=C(Cn1nc2c(cc1=O)CCCC2)NCc1ccccc1 | inactive: -0.916% |
| COc1ccc(-n2nc(C(=O)N3CCN(c4cccc(C)c4)C(C)C3)c3c4ccccc4n(C)c3c2=O)cc1Cl (centres undefined) | inactive: 2.22% |
| COc1cccc(-n2c(=O)c3c4c(sc3n(Cc3ccccc3C#N)c2=O)CCCC4)c1 | inactive: 0.166% |
| Cc1ccccc1-c1noc(-c2ccc(NC3CCCC3)c([N+](=O)[O-])c2)n1 | inactive: 0.291% |
| CN(C(=O)CSc1nc2ccc(NC(=O)c3ccccc3)cc2s1)c1ccccc1 | inactive: -13.1% |
| O=C(CSc1oc(-c2cccs2)nc1S(=O)(=O)c1ccccc1)Nc1ccc(F)cc1 | inactive: 6.38% |
| Cc1ccc(C2=NN(CCC(=O)NCCc3cccc(C)c3)C(=O)CC2)cc1 | inactive: -22.8% |
| COc1ccc(Cn2c(NCC(C)C)nc3c2c(=O)n(C)c(=O)n3C)cc1 | inactive: 5.03% |
| Cc1ccc(-n2nc(C)c3c(C(=O)Nc4ccc(C)cc4Cl)cc(C)nc32)cc1 | inactive: 14.4% |
| COc1cc(CN(C(=O)c2ccc(C)cc2)c2ccccn2)cc(OC)c1OC | inactive: -19.6% |
| CCOC(=O)CSc1nc(-c2ccc(OC)cc2)cc(C(F)(F)F)c1C#N | inactive: -1.76% |
| CC(=O)Nc1cccc(-c2nnc(SCC(=O)c3ccc([N+](=O)[O-])cc3)o2)c1 | inactive: 21.7% |
| COc1ccc(OC)c(CNC(=O)c2cnc(N(C)C)nc2)c1 | inactive: 5.53% |
| CCOc1ccccc1/C=C/c1onc(C)c1S(=O)(=O)N1CCC(C(=O)N2CCCCC2)CC1 | inactive: -9% |
| CCc1ccccc1NS(=O)(=O)c1ccc2[nH]cc(C(=O)NC3CCCC3)c(=O)c2c1 | inactive: -9.68% |
| CCOc1ccc(CCNC(=O)CCn2c(=O)c3cccn3c3ccc(F)cc32)cc1 | inactive: -0.0781% |
| Cc1ccc(NC(=O)Cn2nc(C(F)(F)F)c3c2CCC3)cc1C | inactive: 7.6% |
| O=C(Nc1ccc(OCc2cc(=O)n3c4c(sc3n2)CCCC4)cc1)c1ccc(F)cc1 | inactive: 1.53% |

Source: PubChem BioAssay AID1508642 (National Center for Advancing Translational Sciences (NCATS), 2021)
